Experimental data from PMC4682058.
These are yes or no findings as the source states them, for the method shown. In cells and extracts the contact can be indirect. Some results given as binding are weak or reduced against the parent protein; the word gives no strength. Each block holds one molecule with its values, some of them ahead of it.

The chains behind the UniProt entries cited, without tags or fusion partners.
UniProt Q5SW79: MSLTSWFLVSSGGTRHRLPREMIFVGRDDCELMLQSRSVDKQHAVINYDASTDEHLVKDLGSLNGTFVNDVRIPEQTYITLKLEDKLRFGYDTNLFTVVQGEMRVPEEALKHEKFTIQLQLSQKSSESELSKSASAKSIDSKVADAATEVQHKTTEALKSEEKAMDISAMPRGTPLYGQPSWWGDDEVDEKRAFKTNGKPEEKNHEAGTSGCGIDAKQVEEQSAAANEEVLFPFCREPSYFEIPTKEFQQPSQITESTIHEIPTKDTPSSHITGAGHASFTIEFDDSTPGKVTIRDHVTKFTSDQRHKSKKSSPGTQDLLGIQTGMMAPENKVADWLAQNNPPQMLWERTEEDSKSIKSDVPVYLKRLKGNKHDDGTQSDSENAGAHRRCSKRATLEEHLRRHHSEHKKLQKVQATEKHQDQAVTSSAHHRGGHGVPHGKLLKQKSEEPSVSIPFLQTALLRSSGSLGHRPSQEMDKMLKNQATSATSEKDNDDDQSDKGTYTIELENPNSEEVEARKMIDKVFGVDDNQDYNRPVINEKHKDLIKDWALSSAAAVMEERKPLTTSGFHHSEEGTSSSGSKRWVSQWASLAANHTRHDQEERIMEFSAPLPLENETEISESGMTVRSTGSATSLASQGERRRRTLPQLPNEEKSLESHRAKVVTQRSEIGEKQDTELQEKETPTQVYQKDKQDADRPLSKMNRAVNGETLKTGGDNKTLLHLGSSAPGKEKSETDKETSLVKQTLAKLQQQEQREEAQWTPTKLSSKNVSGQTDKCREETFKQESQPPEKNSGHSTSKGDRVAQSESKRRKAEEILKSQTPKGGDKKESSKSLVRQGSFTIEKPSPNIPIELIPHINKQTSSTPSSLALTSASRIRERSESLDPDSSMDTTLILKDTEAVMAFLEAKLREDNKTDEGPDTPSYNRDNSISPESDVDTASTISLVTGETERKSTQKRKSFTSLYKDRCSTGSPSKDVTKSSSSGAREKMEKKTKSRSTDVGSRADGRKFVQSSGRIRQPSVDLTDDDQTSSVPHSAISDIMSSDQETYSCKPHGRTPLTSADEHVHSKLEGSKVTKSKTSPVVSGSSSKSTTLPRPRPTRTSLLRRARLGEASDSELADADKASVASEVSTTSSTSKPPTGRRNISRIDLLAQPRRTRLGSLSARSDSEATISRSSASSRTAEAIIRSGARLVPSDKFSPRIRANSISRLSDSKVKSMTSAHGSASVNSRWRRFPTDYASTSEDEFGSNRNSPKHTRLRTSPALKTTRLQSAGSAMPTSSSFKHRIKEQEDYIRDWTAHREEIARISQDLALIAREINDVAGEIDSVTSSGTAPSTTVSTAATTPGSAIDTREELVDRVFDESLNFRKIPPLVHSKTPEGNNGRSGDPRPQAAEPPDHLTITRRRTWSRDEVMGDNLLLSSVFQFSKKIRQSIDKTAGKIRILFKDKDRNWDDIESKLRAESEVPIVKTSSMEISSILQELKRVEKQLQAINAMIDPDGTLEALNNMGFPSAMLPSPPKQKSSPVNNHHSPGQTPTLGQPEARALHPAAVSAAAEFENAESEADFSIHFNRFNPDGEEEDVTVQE
UniProt Q14980: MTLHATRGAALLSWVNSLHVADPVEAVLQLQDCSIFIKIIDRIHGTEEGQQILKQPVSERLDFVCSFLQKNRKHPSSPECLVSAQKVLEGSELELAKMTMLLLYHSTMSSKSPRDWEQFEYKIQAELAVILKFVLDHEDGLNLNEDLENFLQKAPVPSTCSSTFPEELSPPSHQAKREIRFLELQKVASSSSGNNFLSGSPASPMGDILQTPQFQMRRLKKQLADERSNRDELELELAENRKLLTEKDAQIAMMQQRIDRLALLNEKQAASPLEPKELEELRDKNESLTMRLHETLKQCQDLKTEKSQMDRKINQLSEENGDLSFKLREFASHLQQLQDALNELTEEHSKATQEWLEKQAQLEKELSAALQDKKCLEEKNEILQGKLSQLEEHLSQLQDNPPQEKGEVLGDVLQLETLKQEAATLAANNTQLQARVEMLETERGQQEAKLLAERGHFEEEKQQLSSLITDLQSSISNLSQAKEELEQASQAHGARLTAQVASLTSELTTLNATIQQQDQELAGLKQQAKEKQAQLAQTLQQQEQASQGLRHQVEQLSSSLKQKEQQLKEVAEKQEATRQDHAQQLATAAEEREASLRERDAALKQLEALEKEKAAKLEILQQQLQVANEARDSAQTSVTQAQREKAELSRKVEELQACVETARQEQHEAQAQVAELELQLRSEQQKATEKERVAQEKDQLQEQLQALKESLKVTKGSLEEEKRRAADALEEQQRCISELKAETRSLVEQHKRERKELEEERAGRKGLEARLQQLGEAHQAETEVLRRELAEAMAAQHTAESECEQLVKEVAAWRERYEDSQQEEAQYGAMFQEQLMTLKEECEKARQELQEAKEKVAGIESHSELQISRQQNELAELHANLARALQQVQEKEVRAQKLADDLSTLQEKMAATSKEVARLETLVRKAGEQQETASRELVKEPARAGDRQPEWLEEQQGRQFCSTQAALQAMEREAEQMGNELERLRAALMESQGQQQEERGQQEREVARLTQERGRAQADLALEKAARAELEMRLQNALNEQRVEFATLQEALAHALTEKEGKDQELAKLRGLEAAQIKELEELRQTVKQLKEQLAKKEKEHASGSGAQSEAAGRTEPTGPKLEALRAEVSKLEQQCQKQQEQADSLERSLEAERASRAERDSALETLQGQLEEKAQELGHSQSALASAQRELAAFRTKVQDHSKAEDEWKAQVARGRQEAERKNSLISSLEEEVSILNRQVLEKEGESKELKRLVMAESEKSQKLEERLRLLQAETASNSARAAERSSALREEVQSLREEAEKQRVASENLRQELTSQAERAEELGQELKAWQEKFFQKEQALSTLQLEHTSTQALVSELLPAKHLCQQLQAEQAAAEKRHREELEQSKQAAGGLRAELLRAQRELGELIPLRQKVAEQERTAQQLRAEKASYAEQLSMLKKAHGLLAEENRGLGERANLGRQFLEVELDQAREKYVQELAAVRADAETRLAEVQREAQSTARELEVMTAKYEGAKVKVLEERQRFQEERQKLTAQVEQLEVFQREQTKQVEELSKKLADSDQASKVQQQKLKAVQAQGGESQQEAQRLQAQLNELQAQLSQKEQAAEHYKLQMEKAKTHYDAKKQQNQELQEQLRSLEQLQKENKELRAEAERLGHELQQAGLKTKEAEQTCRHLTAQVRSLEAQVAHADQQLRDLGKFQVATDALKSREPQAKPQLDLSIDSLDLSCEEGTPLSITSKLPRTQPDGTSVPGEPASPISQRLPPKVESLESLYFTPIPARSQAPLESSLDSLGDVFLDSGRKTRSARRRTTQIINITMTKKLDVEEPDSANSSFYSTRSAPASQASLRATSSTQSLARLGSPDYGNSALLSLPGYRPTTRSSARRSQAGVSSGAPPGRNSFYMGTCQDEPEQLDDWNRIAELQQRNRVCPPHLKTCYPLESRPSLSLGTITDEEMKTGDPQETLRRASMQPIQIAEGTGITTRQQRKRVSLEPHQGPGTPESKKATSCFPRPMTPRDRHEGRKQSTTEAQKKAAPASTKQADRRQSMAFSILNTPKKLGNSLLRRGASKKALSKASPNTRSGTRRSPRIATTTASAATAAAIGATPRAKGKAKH
UniProt Q8N4N8: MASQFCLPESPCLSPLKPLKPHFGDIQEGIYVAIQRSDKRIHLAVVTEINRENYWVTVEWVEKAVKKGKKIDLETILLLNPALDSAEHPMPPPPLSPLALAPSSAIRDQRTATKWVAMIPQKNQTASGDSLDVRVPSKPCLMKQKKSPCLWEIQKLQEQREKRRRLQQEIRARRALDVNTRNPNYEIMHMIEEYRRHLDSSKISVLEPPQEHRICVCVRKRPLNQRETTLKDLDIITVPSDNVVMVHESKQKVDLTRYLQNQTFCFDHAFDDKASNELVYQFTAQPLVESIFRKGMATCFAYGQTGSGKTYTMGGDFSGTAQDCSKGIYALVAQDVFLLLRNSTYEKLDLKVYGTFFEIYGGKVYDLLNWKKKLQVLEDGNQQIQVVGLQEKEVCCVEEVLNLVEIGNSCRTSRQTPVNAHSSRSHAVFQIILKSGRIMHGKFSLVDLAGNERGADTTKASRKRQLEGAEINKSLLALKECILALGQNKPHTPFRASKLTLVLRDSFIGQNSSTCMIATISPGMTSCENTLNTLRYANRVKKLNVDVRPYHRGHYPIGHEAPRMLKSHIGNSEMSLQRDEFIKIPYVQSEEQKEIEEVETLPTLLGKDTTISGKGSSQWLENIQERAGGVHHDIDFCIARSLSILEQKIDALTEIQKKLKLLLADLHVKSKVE

Assays:
[1] = molecular target: CEP170, endogenous (human (endogenous in H1650, H460)) (UniProt Q5SW79); experiment: co-IP; endogenous proteins; control or TBK1-depleted (shRNA) cells synchronized by double-thymidine block; Kif2b blotted in CEP170 immunoprecipitates; NuMA with dynein
[2] = molecular target: NuMA, endogenous (human (endogenous in H1650, H460)) (UniProt Q14980); experiment: co-IP; endogenous proteins; 250 μg of NP-40 lysate and 1 μg antibody; asynchronously growing H1650 cells, and H460 cells released from G1/S (double-thymidine) block
[3] = molecular target: CEP170, endogenous (human (endogenous in H1650, H460)) (UniProt Q5SW79); experiment: as above
His6-tagged CEP170 [4] = molecular target: His6-tagged CEP170 (UniProt Q5SW79); experiment: pull-down; H460 or H1650 cell lysates incubated with His-tagged CEP170 beads along with 5 μM CEP or scrambled peptide; western blot; only the target purified
[5] = molecular target: NuMA, endogenous (human (endogenous in H1650, H460)) (UniProt Q14980); experiment: condition: only cells released from double-thymidine block in the presence of BX795 (0.5 μM); co-IP; endogenous proteins; H460 cells released from double-thymidine block in the presence of BX795
[6] = molecular target: CEP170, endogenous (human (endogenous in H1650, H460)) (UniProt Q5SW79); experiment: as above
[7] = molecular target: NuMA, endogenous (human (endogenous in H1650, H460)) (UniProt Q14980); experiment: proximity ligation; Duolink system on fixed cells; antibodies to TBK1 and CEP170 or NuMA; controls: TBK1 antibody alone or with normal IgG
[8] = molecular target: CEP170, endogenous (human (endogenous in H1650, H460)) (UniProt Q5SW79); experiment: as above
His6-tagged CEP170 [9] = molecular target: His6-tagged CEP170 (UniProt Q5SW79); experiment: pull-down; 8 μl of 35S-methionine-labelled in vitro translated TBK1 on GST-NuMA, GST or His-CEP170 beads; 20 mM Tris-HCl pH 7.5, 0.5% NP-40, 50 mM KCl, 500 mM EDTA, 3 mg/ml BSA, 1 mM DTT, 0.5 mM PMSF; 2 h at 4 °C; autoradiography; only the target purified
[10] = molecular target: T1, TANK Binding Kinase 1 (TBK1), endogenous (human (endogenous in H1650, H460)) (UniProt Q9UHD2); experiment: pull-down; competition: 5 μM synthetic CEP peptide added to H460 or H1650 lysate with His-tagged CEP170 beads; TBK1 on the beads by western blot; only the binder purified
T1 sequence: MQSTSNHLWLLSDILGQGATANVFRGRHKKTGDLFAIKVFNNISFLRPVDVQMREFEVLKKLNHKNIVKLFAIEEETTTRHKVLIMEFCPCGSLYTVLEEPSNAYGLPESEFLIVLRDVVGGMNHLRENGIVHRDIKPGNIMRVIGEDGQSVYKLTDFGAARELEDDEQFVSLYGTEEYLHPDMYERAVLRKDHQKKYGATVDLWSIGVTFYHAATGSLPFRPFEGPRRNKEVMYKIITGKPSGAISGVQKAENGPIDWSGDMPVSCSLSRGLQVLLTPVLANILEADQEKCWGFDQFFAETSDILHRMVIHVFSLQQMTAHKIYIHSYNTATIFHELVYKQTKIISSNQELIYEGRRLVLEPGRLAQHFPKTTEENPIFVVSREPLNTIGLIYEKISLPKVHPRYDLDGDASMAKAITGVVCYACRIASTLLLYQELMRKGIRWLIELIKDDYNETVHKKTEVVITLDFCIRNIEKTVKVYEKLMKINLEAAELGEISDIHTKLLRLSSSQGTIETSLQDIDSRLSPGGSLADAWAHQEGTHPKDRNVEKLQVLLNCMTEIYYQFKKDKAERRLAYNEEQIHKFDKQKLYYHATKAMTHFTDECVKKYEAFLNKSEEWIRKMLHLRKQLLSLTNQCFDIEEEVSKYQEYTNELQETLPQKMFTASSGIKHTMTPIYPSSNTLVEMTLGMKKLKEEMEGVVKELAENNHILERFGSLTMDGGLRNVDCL

[11] = molecular target: T1, TANK Binding Kinase 1 (TBK1), endogenous (human (endogenous in H1650, H460)); experiment: proximity ligation; competition in cells: 5 μM CEP-Pen for 24 h on H460 cells; TBK1-CEP170 foci read out; only the binder purified

Molecule: Kif2b, endogenous (from UniProt Q8N4N8 1-673)
binding [1]: binds

B1: TANK Binding Kinase 1 (TBK1), endogenous (enzyme, UniProt Q9UHD2 1-729)
chain: MQSTSNHLWLLSDILGQGATANVFRGRHKKTGDLFAIKVFNNISFLRPVDVQMREFEVLKKLNHKNIVKLFAIEEETTTRHKVLIMEFCPCGSLYTVLEEPSNAYGLPESEFLIVLRDVVGGMNHLRENGIVHRDIKPGNIMRVIGEDGQSVYKLTDFGAARELEDDEQFVSLYGTEEYLHPDMYERAVLRKDHQKKYGATVDLWSIGVTFYHAATGSLPFRPFEGPRRNKEVMYKIITGKPSGAISGVQKAENGPIDWSGDMPVSCSLSRGLQVLLTPVLANILEADQEKCWGFDQFFAETSDILHRMVIHVFSLQQMTAHKIYIHSYNTATIFHELVYKQTKIISSNQELIYEGRRLVLEPGRLAQHFPKTTEENPIFVVSREPLNTIGLIYEKISLPKVHPRYDLDGDASMAKAITGVVCYACRIASTLLLYQELMRKGIRWLIELIKDDYNETVHKKTEVVITLDFCIRNIEKTVKVYEKLMKINLEAAELGEISDIHTKLLRLSSSQGTIETSLQDIDSRLSPGGSLADAWAHQEGTHPKDRNVEKLQVLLNCMTEIYYQFKKDKAERRLAYNEEQIHKFDKQKLYYHATKAMTHFTDECVKKYEAFLNKSEEWIRKMLHLRKQLLSLTNQCFDIEEEVSKYQEYTNELQETLPQKMFTASSGIKHTMTPIYPSSNTLVEMTLGMKKLKEEMEGVVKELAENNHILERFGSLTMDGGLRNVDCL
binding [2]: binds
binding [3]: binds
binding (His6-tagged CEP170 [4]): binds
binding [5]: no binding
binding [6]: no binding
binding [7]: binds
binding [8]: binds

Molecule: ENAESEADFSIHF [CEP170 peptide conjugated to penetratin (CEP-Pen)]
binding [11]: binds

B3: 35S-labelled TBK1 kinase domain (TBK1-1-294) (domain or fragment, UniProt Q9UHD2 1-294)
chain: MQSTSNHLWLLSDILGQGATANVFRGRHKKTGDLFAIKVFNNISFLRPVDVQMREFEVLKKLNHKNIVKLFAIEEETTTRHKVLIMEFCPCGSLYTVLEEPSNAYGLPESEFLIVLRDVVGGMNHLRENGIVHRDIKPGNIMRVIGEDGQSVYKLTDFGAARELEDDEQFVSLYGTEEYLHPDMYERAVLRKDHQKKYGATVDLWSIGVTFYHAATGSLPFRPFEGPRRNKEVMYKIITGKPSGAISGVQKAENGPIDWSGDMPVSCSLSRGLQVLLTPVLANILEADQEKCWG
modifications: 35S-methionine labelled
binding (His6-tagged CEP170 [9]): binds

The remaining lines, values ahead:

binding (His6-tagged CEP170 [9]): binds
B2: full length 35S-labelled TBK1 (enzyme, UniProt Q9UHD2 1-729)
chain: MQSTSNHLWLLSDILGQGATANVFRGRHKKTGDLFAIKVFNNISFLRPVDVQMREFEVLKKLNHKNIVKLFAIEEETTTRHKVLIMEFCPCGSLYTVLEEPSNAYGLPESEFLIVLRDVVGGMNHLRENGIVHRDIKPGNIMRVIGEDGQSVYKLTDFGAARELEDDEQFVSLYGTEEYLHPDMYERAVLRKDHQKKYGATVDLWSIGVTFYHAATGSLPFRPFEGPRRNKEVMYKIITGKPSGAISGVQKAENGPIDWSGDMPVSCSLSRGLQVLLTPVLANILEADQEKCWGFDQFFAETSDILHRMVIHVFSLQQMTAHKIYIHSYNTATIFHELVYKQTKIISSNQELIYEGRRLVLEPGRLAQHFPKTTEENPIFVVSREPLNTIGLIYEKISLPKVHPRYDLDGDASMAKAITGVVCYACRIASTLLLYQELMRKGIRWLIELIKDDYNETVHKKTEVVITLDFCIRNIEKTVKVYEKLMKINLEAAELGEISDIHTKLLRLSSSQGTIETSLQDIDSRLSPGGSLADAWAHQEGTHPKDRNVEKLQVLLNCMTEIYYQFKKDKAERRLAYNEEQIHKFDKQKLYYHATKAMTHFTDECVKKYEAFLNKSEEWIRKMLHLRKQLLSLTNQCFDIEEEVSKYQEYTNELQETLPQKMFTASSGIKHTMTPIYPSSNTLVEMTLGMKKLKEEMEGVVKELAENNHILERFGSLTMDGGLRNVDCL
modifications: 35S-methionine labelled

binding [10]: binds
Molecule: ENAESEADFSIHF [CEP peptide]

binding (His6-tagged CEP170 [9]): no binding
B4: C terminus of TBK1 (residues 284-729) (domain or fragment, UniProt Q9UHD2 284-729)
chain: ILEADQEKCWGFDQFFAETSDILHRMVIHVFSLQQMTAHKIYIHSYNTATIFHELVYKQTKIISSNQELIYEGRRLVLEPGRLAQHFPKTTEENPIFVVSREPLNTIGLIYEKISLPKVHPRYDLDGDASMAKAITGVVCYACRIASTLLLYQELMRKGIRWLIELIKDDYNETVHKKTEVVITLDFCIRNIEKTVKVYEKLMKINLEAAELGEISDIHTKLLRLSSSQGTIETSLQDIDSRLSPGGSLADAWAHQEGTHPKDRNVEKLQVLLNCMTEIYYQFKKDKAERRLAYNEEQIHKFDKQKLYYHATKAMTHFTDECVKKYEAFLNKSEEWIRKMLHLRKQLLSLTNQCFDIEEEVSKYQEYTNELQETLPQKMFTASSGIKHTMTPIYPSSNTLVEMTLGMKKLKEEMEGVVKELAENNHILERFGSLTMDGGLRNVDCL
modifications: 35S-methionine labelled
